Substitutions are numbered along the chain they refer to; changes in the protein carry UniProt numbers. The list shows a part of the results.

The values that follow come from publication PMC9911399, “Two distinct binding modes provide the RNA-binding protein RbFox with extraordinary sequence specificity”.

To fix the notation:
T1: RBFOX1 RRM RbFoxmut (Fox-RRM*) (Homo sapiens, UniProt Q9NWB1 109-208, R118D;E147R;N151S;E152T)
T1 sequence: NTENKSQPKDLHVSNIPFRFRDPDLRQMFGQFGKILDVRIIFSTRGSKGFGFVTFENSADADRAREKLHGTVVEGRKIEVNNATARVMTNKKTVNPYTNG

B1: GAUGAGU (DNA:RNA)
RNA: GGGAGACCGGAAUUCAGAUUGUCCGAUGAGUUUAAAUCCCGUCGUAGCCACCA
DNA 1: CAATCTGAATTCCGGTCTCCC
DNA 2: TGGTGGCTACGACGGGATT
B2: AUGUUCU (DNA:RNA)
RNA: B1 RNA with G25A, A26U, U27G, G28U, A29U, G30C
DNA 1: CAATCTGAATTCCGGTCTCCC
DNA 2: TGGTGGCTACGACGGGATT
B3: AAUCCAU (DNA:RNA)
RNA: B1 RNA with G25A, G28C, A29C, G30A
DNA 1: CAATCTGAATTCCGGTCTCCC
DNA 2: TGGTGGCTACGACGGGATT
B4: GGUUAUG (DNA:RNA)
RNA: B1 RNA with A26G, G28U, G30U, U31G
DNA 1: CAATCTGAATTCCGGTCTCCC
DNA 2: TGGTGGCTACGACGGGATT
B5: AGCGACC (DNA:RNA)
RNA: B1 RNA with G25A, A26G, U27C, G30C, U31C
DNA 1: CAATCTGAATTCCGGTCTCCC
DNA 2: TGGTGGCTACGACGGGATT
B6: AGUGAUC (DNA:RNA)
RNA: B1 RNA with G25A, A26G, G30U, U31C
DNA 1: CAATCTGAATTCCGGTCTCCC
DNA 2: TGGTGGCTACGACGGGATT
B7: AAGGUAC (DNA:RNA)
RNA: B1 RNA with G25A, U27G, A29U, G30A, U31C
DNA 1: CAATCTGAATTCCGGTCTCCC
DNA 2: TGGTGGCTACGACGGGATT
B8: UCUACUC (DNA:RNA)
RNA: B1 RNA with G25U, A26C, G28A, A29C, G30U, U31C
DNA 1: CAATCTGAATTCCGGTCTCCC
DNA 2: TGGTGGCTACGACGGGATT
B9: UCGGCUU (DNA:RNA)
RNA: B1 RNA with G25U, A26C, U27G, A29C, G30U
DNA 1: CAATCTGAATTCCGGTCTCCC
DNA 2: TGGTGGCTACGACGGGATT
B10: AUGUCCC (DNA:RNA)
RNA: GGGAGACCGGAAUUCAGAUUGUCCAUGUCCCUUAAAUCCCGUCGUAGCCACCA
DNA 1: CAATCTGAATTCCGGTCTCCC
DNA 2: TGGTGGCTACGACGGGATT
B11: GAGACGU (DNA:RNA)
RNA: B1 RNA with U27G, G28A, A29C
DNA 1: CAATCTGAATTCCGGTCTCCC
DNA 2: TGGTGGCTACGACGGGATT
B12: CUCACAC (DNA:RNA)
RNA: B10 RNA with A25C, G27C, U28A, C30A
DNA 1: CAATCTGAATTCCGGTCTCCC
DNA 2: TGGTGGCTACGACGGGATT
B13: AUAUCAA (DNA:RNA)
RNA: B10 RNA with G27A, C30A, C31A
DNA 1: CAATCTGAATTCCGGTCTCCC
DNA 2: TGGTGGCTACGACGGGATT
B14: UUUACUG (DNA:RNA)
RNA: B10 RNA with A25U, G27U, U28A, C30U, C31G
DNA 1: CAATCTGAATTCCGGTCTCCC
DNA 2: TGGTGGCTACGACGGGATT
B15: UUGACUG (DNA:RNA)
RNA: B10 RNA with A25U, U28A, C30U, C31G
DNA 1: CAATCTGAATTCCGGTCTCCC
DNA 2: TGGTGGCTACGACGGGATT
B16: GUUCAAU (DNA:RNA)
RNA: B1 RNA with A26U, G28C, G30A
DNA 1: CAATCTGAATTCCGGTCTCCC
DNA 2: TGGTGGCTACGACGGGATT
B17: AGCUUGU (DNA:RNA)
RNA: B10 RNA with U26G, G27C, C29U, C30G, C31U
DNA 1: CAATCTGAATTCCGGTCTCCC
DNA 2: TGGTGGCTACGACGGGATT
B18: CAGUGUC (DNA:RNA)
RNA: B10 RNA with A25C, U26A, C29G, C30U
DNA 1: CAATCTGAATTCCGGTCTCCC
DNA 2: TGGTGGCTACGACGGGATT
B19: UCUUCUU (DNA:RNA)
RNA: B10 RNA with A25U, U26C, G27U, C30U, C31U
DNA 1: CAATCTGAATTCCGGTCTCCC
DNA 2: TGGTGGCTACGACGGGATT
B20: ACGCAAU (DNA:RNA)
RNA: B10 RNA with U26C, U28C, C29A, C30A, C31U
DNA 1: CAATCTGAATTCCGGTCTCCC
DNA 2: TGGTGGCTACGACGGGATT
B21: GCUAGUC (DNA:RNA)
RNA: B1 RNA with A26C, G28A, A29G, G30U, U31C
DNA 1: CAATCTGAATTCCGGTCTCCC
DNA 2: TGGTGGCTACGACGGGATT
B22: GUUUACC (DNA:RNA)
RNA: B10 RNA with A25G, G27U, C29A
DNA 1: CAATCTGAATTCCGGTCTCCC
DNA 2: TGGTGGCTACGACGGGATT
B23: GGAACCA (DNA:RNA)
RNA: B10 RNA with A25G, U26G, G27A, U28A, C31A
DNA 1: CAATCTGAATTCCGGTCTCCC
DNA 2: TGGTGGCTACGACGGGATT
B24: UCGCGGG (DNA:RNA)
RNA: B10 RNA with A25U, U26C, U28C, C29G, C30G, C31G
DNA 1: CAATCTGAATTCCGGTCTCCC
DNA 2: TGGTGGCTACGACGGGATT
B25: CAUCGCG (DNA:RNA)
RNA: B1 RNA with G25C, G28C, A29G, G30C, U31G
DNA 1: CAATCTGAATTCCGGTCTCCC
DNA 2: TGGTGGCTACGACGGGATT
B26: AAGACUC (DNA:RNA)
RNA: B10 RNA with U26A, U28A, C30U
DNA 1: CAATCTGAATTCCGGTCTCCC
DNA 2: TGGTGGCTACGACGGGATT
B27: GCAGCCA (DNA:RNA)
RNA: B10 RNA with A25G, U26C, G27A, U28G, C31A
DNA 1: CAATCTGAATTCCGGTCTCCC
DNA 2: TGGTGGCTACGACGGGATT
B28: GUGACAU (DNA:RNA)
RNA: B10 RNA with A25G, U28A, C30A, C31U
DNA 1: CAATCTGAATTCCGGTCTCCC
DNA 2: TGGTGGCTACGACGGGATT
B29: UAUCGGA (DNA:RNA)
RNA: B1 RNA with G25U, G28C, A29G, U31A
DNA 1: CAATCTGAATTCCGGTCTCCC
DNA 2: TGGTGGCTACGACGGGATT
B30: CCAUCCA (DNA:RNA)
RNA: B10 RNA with A25C, U26C, G27A, C31A
DNA 1: CAATCTGAATTCCGGTCTCCC
DNA 2: TGGTGGCTACGACGGGATT
B31: AAACAAA (DNA:RNA)
RNA: B1 RNA with G25A, U27A, G28C, G30A, U31A
DNA 1: CAATCTGAATTCCGGTCTCCC
DNA 2: TGGTGGCTACGACGGGATT

The target in the assay is T1, RBFOX1 RRM RbFoxmut (Fox-RRM*). Briefly: EMSA; HiTS-Eq, 1 nM pool, 10 min; buffer printed only for the single-RNA assays: 10 mM Tris pH 7.5, 150 mM NaCl, 3.4 mM EDTA, 0.001% NP-40, 30 C. To be noted: tags: His6 N-terminal (pET28a); label: 5' 32P. The gist of the method: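 Relative association constants, normalised to the cognate motif, were derived by comparing read counts of each RNA species with those of the control reaction. The RNA sequenced was the free fraction, separated by 8% native PAGE after a 10 min equilibration in 50 µL of 1 nM 5′-radiolabelled RNA (7 randomized nucleotides) with increasing concentrations of purified wild-type or mutant RbFox RRM.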
(In general: In EMSA bound probe runs differently from free probe, usually more slowly.)
Regarding B1, the binding signal was 0.114 KA relative to UGCAUGU.

B2: the binding signal was 0.127 KA relative to UGCAUGU.

B3: the binding signal was 0.074 KA relative to UGCAUGU.

For the molecule B4, the binding signal is 0.585 KA relative to UGCAUGU.

Regarding B5, the binding signal is 0.0631 KA relative to UGCAUGU.

As for B6, the binding signal is 0.115 KA relative to UGCAUGU.

With B7, the binding signal was 0.105 KA relative to UGCAUGU.

Take B8: the binding signal was 0.0705 KA relative to UGCAUGU.

In the case of B9, the binding signal is 0.0855 KA relative to UGCAUGU.

Regarding B10, the binding signal is 0.0715 KA relative to UGCAUGU.

Take B11: the binding signal was 0.0818 KA relative to UGCAUGU.

Regarding B12, the binding signal was 0.139 KA relative to UGCAUGU.

As to B13, the binding signal was 0.0951 KA relative to UGCAUGU.

B14: the binding signal is 0.0792 KA relative to UGCAUGU.

Regarding B15, the binding signal was 0.243 KA relative to UGCAUGU.

As for B16, the binding signal is 0.0734 KA relative to UGCAUGU.

In the case of B17, the binding signal was 0.238 KA relative to UGCAUGU.

With B18, the binding signal is 0.216 KA relative to UGCAUGU.

With B19, the binding signal was 0.0701 KA relative to UGCAUGU.

B20: the binding signal was 0.0551 KA relative to UGCAUGU.

Turning to B21, the binding signal was 0.073 KA relative to UGCAUGU.

B22: the binding signal is 0.071 KA relative to UGCAUGU.

For the molecule B23, the binding signal is 0.163 KA relative to UGCAUGU.

In the case of B24, the binding signal is 0.082 KA relative to UGCAUGU.

With B25, the binding signal is 0.111 KA relative to UGCAUGU.

On to B26, for which the binding signal was 0.059 KA relative to UGCAUGU.

B27: the binding signal is 0.073 KA relative to UGCAUGU.

With B28, the binding signal is 0.08 KA relative to UGCAUGU.

Consider B29, for which the binding signal is 0.0559 KA relative to UGCAUGU.

As for B30, the binding signal is 0.0884 KA relative to UGCAUGU.

In the case of B31, the binding signal is 0.0465 KA relative to UGCAUGU.
